This is one part of the list.
What was measured:
Assay in all cases: glycan array binding signal (z-score within array); higher = stronger binding
Conditions in all cases: glycan notation: IUPAC condensed, linker removed
[1] = biological target: Neu5Ac(a2-8)Neu5Ac(a2-3)[GalNAc(b1-4)]Gal(b1-4)Glc
Outline: (§1)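 Glycan array data came from 3228 arrays in the Consortium for Functional Glycomics database, and only arrays with an available protein sequence were kept. Glycan names were put into IUPAC-condensed notation, and columns mapping to the same glycan were averaged. The binding signal is a within-array Z-score, averaged across arrays of one protein sequence run at different concentrations or buffers and across linkers. A negative Z-score can be read as non-binding.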

[2] = biological target: Neu5Ac(a2-8)Neu5Ac(a2-8)Neu5Ac
Outline: as §1

[3] = biological target: Neu5Ac(a2-8)Neu5Ac(a2-8)Neu5Ac(a2-3)Gal(b1-4)Glc
Outline: as §1

[4] = biological target: Neu5Ac(a2-8)Neu5Ac(a2-8)Neu5Ac(a2-3)[GalNAc(b1-4)]Gal(b1-4)Glc
Outline: as §1

[5] = biological target: Neu5Ac(a2-8)Neu5Ac(a2-8)Neu5Ac(a2-8)Neu5Ac(a2-3)[GalNAc(b1-4)]Gal(b1-4)Glc
Outline: as §1

Neu5Ac(b1-6)GalNAc = biological target: Neu5Ac(b1-6)GalNAc
Outline: as §1

[6] = biological target: Neu5Ac(b2-6)Gal(b1-4)GlcNAc
Outline: as §1

[7] = biological target: Neu5Ac9Ac(a2-6)Gal(b1-4)GlcNAc
Outline: as §1

[8] = biological target: Neu5Gc(a2-3)Gal(b1-3)GlcNAc
Outline: as §1

[9] = biological target: Neu5Gc(a2-3)Gal(b1-3)[Fuc(a1-4)]GlcNAc
Outline: as §1

Neu5Gc(a2-3)Gal(b1-4)Glc = biological target: Neu5Gc(a2-3)Gal(b1-4)Glc
Outline: as §1

[10] = biological target: Neu5Gc(a2-3)Gal(b1-4)GlcNAc
Outline: as §1

[11] = biological target: Neu5Gc(a2-3)Gal(b1-4)[Fuc(a1-3)]GlcNAc
Outline: as §1

[12] = biological target: Neu5Gc(a2-6)Gal(b1-4)GlcNAc
Outline: as §1

Neu5Gc(a2-6)GalNAc = biological target: Neu5Gc(a2-6)GalNAc
Outline: as §1

B1: FaeGac (Escherichia coli) (protein)
chain: WMTGDFNGSVDIGGSITADDYRQKWEWKVGTGLNGFGNVLNDLTNGGTKLTITVTGNKPILLGRTKEAFATPVTGGVDGIPHIAFTDYEGASVVLRKPDGETNKNGLAYFVLPMKNAGGTKVGSVKVNASYAGVLGRGGVTSADGELLSLFADGLSSIFYGGLPRGSELSAGSAAAARTKLFGSLSRDDILGQIQRVNANVTSLVDVAGSYRENMEYTDGNVVSAAYALGIANGQTIEATFNQAVTTSTQWSAPLNVAITYY
Question: Which results are given for B1?
Answer: glycan array binding signal (z-score) [1]: -0.17; glycan array binding signal (z-score) [2]: -0.757; glycan array binding signal (z-score) [3]: -0.867; glycan array binding signal (z-score) [4]: 0.111; glycan array binding signal (z-score) [5]: 0.001; glycan array binding signal (z-score) (Neu5Ac(b1-6)GalNAc): -0.047; glycan array binding signal (z-score) [6]: -0.584; glycan array binding signal (z-score) [7]: -0.815; glycan array binding signal (z-score) [8]: -0.826; glycan array binding signal (z-score) [9]: 0.009; glycan array binding signal (z-score) (Neu5Gc(a2-3)Gal(b1-4)Glc): -0.761; glycan array binding signal (z-score) [10]: 0.173; glycan array binding signal (z-score) [11]: -0.884; glycan array binding signal (z-score) [12]: 0.117; glycan array binding signal (z-score) (Neu5Gc(a2-6)GalNAc): 0.116

Source: the supplement of paper PMC8728848
